Results taken from patent publication US20170044230A1 (USTAV ORGANICKE CHEMIE A BIOCHEMIE AV CR, V.V.I., priority 2014, published 2017).
At least one peptide structure holds a part that was inferred or is arguable (an end, a ring closure or a residue). Non-standard residues stand in square brackets, D forms with d. Residues, ends and D or L forms follow the SMILES beside them. *: point of attachment. Palmitoyl = CCCCCCCCCCCCCCCC(=O)*; Myristoyl = CCCCCCCCCCCCCC(=O)*; Decanoyl = CCCCCCCCCC(=O)*; Dap = NC[C@H](N)C(=O)O; Sar = CNCC(=O)O

Key:
fed C57BL/6 male mice = assay: Effect of SC administered ghrelin analogs on food intake; assay type: in vivo; conditions: for maximal effect at 5 mg/kg on food intake: SC 5 mg/kg, evaluated 480 min after administration; for ED50 (250 min after injection), effect on food intake: SC, fed mice
Procedure: All of the experiments followed the ethical guidelines for animal experiments and Czech Republic law 246/1992 and were approved by the committee for experiments with laboratory animals of the Academy of Sciences of the Czech Republic. Male C57BL/6 mice (Charles River, Germany) were housed at a temperature 22±2° C. under a daily cycle of 12/12 h light/dark (light from 6:00) with free access to water and a standard chow diet St-1 which contained […] of calories from protein, fat and carbohydrate, respectively, and its energy content was 3.4 kcal/g (Mlýn Kocanda, Praha, Czech Republic). Mice were placed into separate cages for one week before experiment, they had free access to water and food pellets. Closely before the experiment, the food pellets were removed from the cages. […] 15 min after the injection, mice were given preweighed food pellets. Food intake was monitored for 8-10 hours at 30-min intervals. Mice had free access to water during the experiment. Experiments were performed at least twice for each tested compound, each experimental group had at least 5 mice.
Data from food intake experiments were analyzed by one-way ANOVA followed by Dunnett's post-hoc test using GraphPad Prism Software (San Diego, Calif., USA), P<0.05 was considered statistically significant. ED50 values were calculated using GraphPad Prism Software as the dose of the tested compound required to elicit half-maximal effect at 250 min after administration of the corresponding compound.
Food intake was monitored for […] after administration of the compounds. ED50 values were determined 250 min after administration. Maximal effect on food intake was evaluated […] after administration of the compounds at a dose of 5 mg/kg of body weight. NT—not tested.

human GHS-R1a receptor = target: T1, human GHS-R1a receptor (Homo sapiens, UniProt Q92847); assay: Competitive binding studies (displacement of 125I-ghrelin); conditions: for % of ghrelin binding: relative to ghrelin = 100
T1 construct: purchased Multispan, Hayward, Calif., USA; host or cells: HEK293T cells, isolated plasma membranes
Procedure: Isolated plasma membranes from the HEK293T cells with transfected human GHS-R1a receptor (Multispan, Hayward, Calif., USA) were used. […] Experiments were carried out in duplicates at least three times. Competitive binding curves were plotted using GraphPad Prism Software (San Diego, Calif., USA) while comparing the best fit for single binding sites models.

T1 sequence (Q92847 whole entry): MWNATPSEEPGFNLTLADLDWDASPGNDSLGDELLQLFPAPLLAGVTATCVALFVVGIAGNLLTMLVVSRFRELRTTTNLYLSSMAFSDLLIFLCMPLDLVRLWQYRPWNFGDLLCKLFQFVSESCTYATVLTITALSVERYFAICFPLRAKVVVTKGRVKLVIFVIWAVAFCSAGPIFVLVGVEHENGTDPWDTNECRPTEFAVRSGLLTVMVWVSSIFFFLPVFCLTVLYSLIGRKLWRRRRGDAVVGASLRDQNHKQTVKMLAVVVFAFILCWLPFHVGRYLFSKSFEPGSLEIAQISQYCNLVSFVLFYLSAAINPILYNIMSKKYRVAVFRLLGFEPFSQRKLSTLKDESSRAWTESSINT

Structure (SMILES)	maximal effect at 5 mg/kg on food intake (fed C57BL/6 male mice)	ED50 (250 min after injection), effect on food intake (fed C57BL/6 male mice) [mg/kg]	% of ghrelin binding (human GHS-R1a receptor) [%]	affinity for GHS-R1a compared with ghrelin (human GHS-R1a receptor; in words)
CCCCCCCCCCCCCCCC(=O)NCCCC[C@H](NC(=O)[C@H](C)NC(=O)[C@@H]1CCCN1C(=O)[C@@H]1CCCN1C(=O)[C@H](CCCCN)NC(=O)[C@H](CCCCN)NC(=O)[C@H](CO)NC(=O)[C@H](CCC(=O)O)NC(=O)[C@H](CCCCN)NC(=O)[C@H](CCCNC(=N)N)NC(=O)[C@H](CCC(N)=O)NC(=O)[C@H](CCC(N)=O)NC(=O)[C@H](C)NC(=O)[C@H](CCCCN)NC(=O)[C@H](CCC(N)=O)NC(=O)[C@H](Cc1c[nH]cn1)NC(=O)[C@H](CCC(=O)O)NC(=O)[C@@H]1CCCN1C(=O)[C@H](CO)NC(=O)[C@H](CC(C)C)NC(=O)[C@H](Cc1ccccc1)NC(=O)[C@H](CNC(=O)CCCCCCC)NC(=O)[C@H](CO)NC(=O)CNC)C(=O)N[C@@H](CC(C)C)C(=O)N[C@@H](CCC(N)=O)C(=O)N1CCC[C@H]1C(=O)N[C@@H](CCCNC(=N)N)C(=O)O [Analog 7]	193.9 % of Dpr^3ghr	9.98	19	
CCCCCCCCCCCCCCCC(=O)NCCCC[C@H](NC(=O)[C@H](C)NC(=O)[C@@H]1CCCN1C(=O)[C@@H]1CCCN1C(=O)[C@H](CCCCN)NC(=O)[C@H](CCCCN)NC(=O)[C@H](CO)NC(=O)[C@H](CCC(=O)O)NC(=O)[C@H](CCCCN)NC(=O)[C@H](CCCNC(=N)N)NC(=O)[C@H](CCC(N)=O)NC(=O)[C@H](CCC(N)=O)NC(=O)[C@H](C)NC(=O)[C@H](CCCCN)NC(=O)[C@H](CCC(N)=O)NC(=O)[C@H](Cc1c[nH]cn1)NC(=O)[C@H](CCC(=O)O)NC(=O)[C@@H]1CCCN1C(=O)[C@H](CO)NC(=O)[C@H](CC(C)C)NC(=O)[C@H](CC1CCCCC1)NC(=O)[C@H](CNC(=O)CCCCCCC)NC(=O)[C@H](CO)NC(=O)CNC)C(=O)N[C@@H](CC(C)C)C(=O)N[C@@H](CCC(N)=O)C(=O)N1CCC[C@H]1C(=O)N[C@@H](CCCNC(=N)N)C(=O)O [Analog 8]	200.2 % of Dpr^3ghr		6	
CCCCCCCC(=O)NC[C@H](NC(=O)[C@H](CO)NC(=O)CNC)C(=O)N[C@@H](CC(C)(C)C)C(=O)N[C@@H](CC(C)C)C(=O)N[C@@H](CO)C(=O)N1CCC[C@H]1C(=O)N[C@@H](CCC(=O)O)C(=O)N[C@@H](Cc1c[nH]cn1)C(=O)N[C@@H](CCC(N)=O)C(=O)N[C@@H](CCCCN)C(=O)N[C@@H](C)C(=O)N[C@@H](CCC(N)=O)C(=O)N[C@@H](CCC(N)=O)C(=O)N[C@@H](CCCNC(=N)N)C(=O)N[C@@H](CCCCN)C(=O)N[C@@H](CCC(=O)O)C(=O)N[C@@H](CO)C(=O)N[C@@H](CCCCN)C(=O)N[C@@H](CCCCN)C(=O)N1CCC[C@H]1C(=O)N1CCC[C@H]1C(=O)N[C@@H](C)C(=O)N[C@@H](CCCCN)C(=O)N[C@@H](CC(C)C)C(=O)N[C@@H](CCC(N)=O)C(=O)N1CCC[C@H]1C(=O)N[C@@H](CCCNC(=N)N)C(=O)O [Analog 10]	122.7 % of Dpr^3ghr	0.85	24	
C#CCCCCCCCCC(=O)NC[C@H](NC(=O)[C@H](CO)NC(=O)CNC)C(=O)N[C@@H](Cc1ccccc1)C(=O)N[C@@H](CC(C)C)C(=O)N[C@@H](CO)C(=O)N1CCC[C@H]1C(=O)N[C@@H](CCC(=O)O)C(=O)N[C@@H](Cc1c[nH]cn1)C(=O)N[C@@H](CCC(N)=O)C(=O)N[C@@H](CCCCN)C(=O)N[C@@H](C)C(=O)N[C@@H](CCC(N)=O)C(=O)N[C@@H](CCC(N)=O)C(=O)N[C@@H](CCCNC(=N)N)C(=O)N[C@@H](CCCCN)C(=O)N[C@@H](CCC(=O)O)C(=O)N[C@@H](CO)C(=O)N[C@@H](CCCCN)C(=O)N[C@@H](CCCCN)C(=O)N1CCC[C@H]1C(=O)N1CCC[C@H]1C(=O)N[C@@H](C)C(=O)N[C@@H](CCCCN)C(=O)N[C@@H](CC(C)C)C(=O)N[C@@H](CCC(N)=O)C(=O)N1CCC[C@H]1C(=O)N[C@@H](CCCNC(=N)N)C(=O)O [Analog 11]	124.8 % of Dpr^3ghr	6.62	139	higher affinities for GHS-R1a than ghrelin
C=CCCCCCCCC(=O)NC[C@H](NC(=O)[C@H](CO)NC(=O)CNC)C(=O)N[C@@H](Cc1ccccc1)C(=O)N[C@@H](CC(C)C)C(=O)N[C@@H](CO)C(=O)N1CCC[C@H]1C(=O)N[C@@H](CCC(=O)O)C(=O)N[C@@H](Cc1c[nH]cn1)C(=O)N[C@@H](CCC(N)=O)C(=O)N[C@@H](CCCCN)C(=O)N[C@@H](C)C(=O)N[C@@H](CCC(N)=O)C(=O)N[C@@H](CCC(N)=O)C(=O)N[C@@H](CCCNC(=N)N)C(=O)N[C@@H](CCCCN)C(=O)N[C@@H](CCC(=O)O)C(=O)N[C@@H](CO)C(=O)N[C@@H](CCCCN)C(=O)N[C@@H](CCCCN)C(=O)N1CCC[C@H]1C(=O)N1CCC[C@H]1C(=O)N[C@@H](C)C(=O)N[C@@H](CCCCN)C(=O)N[C@@H](CC(C)C)C(=O)N[C@@H](CCC(N)=O)C(=O)N1CCC[C@H]1C(=O)N[C@@H](CCCNC(=N)N)C(=O)O [Analog 12]	141.5 % of Dpr^3ghr		76	
CCCCCCCCCCCCCCCC(=O)NCCCC[C@H](NC(=O)[C@H](CCCNC(=N)N)NC(=O)[C@H](CCC(N)=O)NC(=O)[C@H](CCC(N)=O)NC(=O)[C@H](C)NC(=O)[C@H](CCCCN)NC(=O)[C@H](CCC(N)=O)NC(=O)[C@H](Cc1c[nH]cn1)NC(=O)[C@H](CCC(=O)O)NC(=O)[C@@H]1CCCN1C(=O)[C@H](CO)NC(=O)[C@H](CC(C)C)NC(=O)[C@H](Cc1ccccc1)NC(=O)[C@H](CNC(=O)CCCCCCCCC)NC(=O)[C@H](CO)NC(=O)CNC)C(=O)N[C@@H](CCC(=O)O)C(=O)N[C@@H](CO)C(=O)O [Analog 15] (H-[Sar]S[Dap](Decanoyl)FLSPEHQKAQQRK(Palmitoyl)ES-OH)	158.8 % of Dpr^3ghr		19	
CCCCCCCCCCCCCCCC(=O)NCCCC[C@H](NC(=O)[C@H](CCCNC(=N)N)NC(=O)[C@H](CCC(N)=O)NC(=O)[C@H](CCC(N)=O)NC(=O)[C@H](C)NC(=O)[C@H](CCCCN)NC(=O)[C@H](CCC(N)=O)NC(=O)[C@H](Cc1c[nH]cn1)NC(=O)[C@H](CCC(=O)O)NC(=O)[C@@H]1CCCN1C(=O)[C@H](CO)NC(=O)[C@H](CC(C)C)NC(=O)[C@H](Cc1ccccc1)NC(=O)[C@H](CNC(=O)CCCCCCCCCCCCC)NC(=O)[C@H](CO)NC(=O)CNC)C(=O)N[C@@H](CCC(=O)O)C(=O)N[C@@H](CO)C(=O)O [Analog 16] (H-[Sar]S[Dap](Myristoyl)FLSPEHQKAQQRK(Palmitoyl)ES-OH)	177.6 % of Dpr^3ghr		2	
CCCCCCCCCC(=O)NC[C@H](NC(=O)[C@H](CO)NC(=O)CNC)C(=O)N[C@@H](Cc1ccccc1)C(=O)N[C@@H](CC(C)C)C(=O)N[C@@H](CO)C(=O)N1CCC[C@H]1C(=O)N[C@@H](CCC(=O)O)C(=O)N[C@@H](Cc1c[nH]cn1)C(=O)N[C@@H](CCC(N)=O)C(=O)N[C@@H](CCCCN)C(=O)N[C@@H](C)C(=O)N[C@@H](CCC(N)=O)C(=O)N[C@@H](CCC(N)=O)C(=O)N[C@@H](CCCNC(=N)N)C(=O)N[C@@H](CCCCN)C(=O)N[C@@H](CCC(=O)O)C(=O)N[C@@H](CO)C(=O)O [Analog 17] (H-[Sar]S[Dap](Decanoyl)FLSPEHQKAQQRKES-OH)	147.9 % of Dpr^3ghr		30	
CCCCCCCCCCCCCC(=O)NC[C@H](NC(=O)[C@H](CO)NC(=O)CNC)C(=O)N[C@@H](Cc1ccccc1)C(=O)N[C@@H](CC(C)C)C(=O)N[C@@H](CO)C(=O)N1CCC[C@H]1C(=O)N[C@@H](CCC(=O)O)C(=O)N[C@@H](Cc1c[nH]cn1)C(=O)N[C@@H](CCC(N)=O)C(=O)N[C@@H](CCCCN)C(=O)N[C@@H](C)C(=O)N[C@@H](CCC(N)=O)C(=O)N[C@@H](CCC(N)=O)C(=O)N[C@@H](CCCNC(=N)N)C(=O)N[C@@H](CCCCN)C(=O)N[C@@H](CCC(=O)O)C(=O)N[C@@H](CO)C(=O)O [Analog 18] (H-[Sar]S[Dap](Myristoyl)FLSPEHQKAQQRKES-OH)	128.5 % of Dpr^3ghr		34	
